Measured values published in the antibiotic and cytotoxicity screens of Wong et al. (2023).
This is one part of the list.

tested on: S. aureus RN4220; test: growth inhibition call (relative growth <= 0.2); conditions: 50 µM

Growth inhibition call, inactive:
CCCC#Cc1ccc2c(c1)O[C@@H](CN(C)S(=O)(=O)c1cccc(OC)c1)[C@H](C)CN([C@@H](C)CO)S2(=O)=O
COc1ccccc1CNC(=O)C[C@@H]1C[C@@H]2c3cc(NC(=O)c4ccc5c(c4)OCO5)ccc3O[C@@H]2[C@@H](CO)O1
CC(C)NC(=O)Nc1cccc2c1O[C@H](CN(C)C(=O)Nc1ccc3c(c1)OCO3)[C@H](C)CN([C@H](C)CO)C2=O
C[C@@H]1CCCCO[C@H](CN(C)CC2CCCCC2)[C@@H](C)CN([C@H](C)CO)C(=O)c2cc(NS(=O)(=O)c3ccc(Cl)cc3)ccc2O1
CCc1nc2ccc(C(=O)Nc3cc(-c4ccccc4)ccc3OC)cn2c1N(CCN(C)C)CC1CC1
C[C@H]1CN([C@@H](C)CO)C(=O)c2cc(NS(=O)(=O)c3ccc(Cl)cc3)ccc2O[C@@H]1CN(C)Cc1ccc(C(F)(F)F)cc1
Cc1ccc(S(=O)(=O)Nc2ccc3c(c2)C(=O)N([C@H](C)CO)C[C@H](C)[C@H](CN(C)S(=O)(=O)c2ccc(Cl)cc2)OCCCC[C@H](C)O3)cc1
CN(C)C(=O)C[C@@H]1CC[C@H]2[C@H](COc3ccc(NS(=O)(=O)c4cccc(F)c4)cc3C(=O)N2C)O1
C[C@H]1CN([C@@H](C)CO)C(=O)c2cc(NS(=O)(=O)c3cn(C)cn3)ccc2O[C@H]1CN(C)Cc1ccccc1
O=C(CCCCCCC(=O)Nc1ccc([C@H]2O[C@H](CSc3nc(-c4ccccc4)c(-c4ccccc4)o3)C[C@H](c3ccc(NC(=O)CCCCCCC(=O)NO)cc3)O2)cc1)NO
C[C@@H]1CCCCO[C@H](CN(C)S(=O)(=O)c2ccccc2)[C@@H](C)CN([C@@H](C)CO)C(=O)c2cc(NS(C)(=O)=O)ccc2O1
C[C@@H]1CN([C@@H](C)CO)C(=O)CCCn2nncc2CO[C@H]1CN(C)C(=O)Nc1ccc(C(C)(C)C)cc1
CC(=O)O[C@@H]1[C@@H](O)C[C@@]2(C)[C@@H](CC[C@@H](C)[C@@]23Cc2c(O)cc4c(c2O3)CN([C@@H](CCC(=O)O)C(=O)O)C4=O)C1(C)C
CN(C)CCCNC(=O)C[C@@H]1CC[C@@H]2[C@H](COC[C@H](O)CN2S(=O)(=O)c2ccccc2)O1
Cc1ccnc([C@@H](N)C2CC2)c1
C[C@@H]1CCCCO[C@H](CN(C)C(=O)Nc2ccc(F)cc2)[C@H](C)CN([C@H](C)CO)C(=O)c2cc(NS(=O)(=O)c3cccs3)ccc2O1
CC/C(=C\C(=N\O)C(N)=O)[C@@H](C)[N+](=O)[O-]
CC(=O)N1[C@@H]2c3cccc(=O)n3C[C@H]1[C@H](CO)[C@H]2C(=O)N1CCc2ccccc2C1
COCC(=O)Nc1ccc2c(c1)C(=O)N(C)C[C@@H](OC)[C@H](C)CN(Cc1ccccc1OC)[C@H](C)CO2
Cc1cc(-c2ccccc2)oc2cc3ccccc3c1-2
O=C(C[C@@H]1C[C@@H]2c3cc(NC(=O)NC4CCCC4)ccc3O[C@@H]2[C@@H](CO)O1)NCCN1CCCCC1
